Measured values as given in the supplement of paper PMC11417369.
This is one part of the list.

Each sequence was assayed on PF3D7_0420300 AP2 domain 1 (GST-tagged) (assay: gcPBM binding intensity (ln(normalized median fluorescence intensity)); higher = stronger DNA binding).
How it was run: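 In this array assay, P. falciparum DNA-binding domains with a GST tag, expressed in E. coli, were applied for 1 h to primer-extended double-stranded 36-bp intergenic genomic probes and negative controls on an Agilent 4 × 180k array. Bound protein was visualised with Alexa488 anti-GST antibody at 488 nm. Binding intensity is the highest Masliner-normalised natural-log median intensity across replicate spots of either probe orientation.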

Sequence	gcPBM binding intensity (ln)
AAAAAACTTCACATATGTACTTAAAAAAAATTAAAA [XGTACX_site2368]	8.94
GAACATTACGTAAATAAATAAATAAAAATAAATACA [XGTACX_negctrl_site25]	9.38
TATTGTCTTGTATATGCATGTAGACCAAATATGTAA [TGCATGCA_site9]	9.07
CAAAAAAAAATCTGTAGTACTTATTAATATTGCTGT [XGTACX_site4767]	9.15
ATCACAAAAAAGTTCATACACACAACCTATTTATAT [CACACA_site2888]	9.68
AAATCAAATTTTTAGAGTACTTAAGTTTTCTATATA [XGTACX_site7827]	8.83
TAATATATTAATATATGTACATATTTATATATCTAC [XGTACX_site7117]	9.12
TCCCCATATGTTTTGTGTACATATATATTTTTTTGT [XGTACX_site75]	9.65
GCTTATTTTAATTCTTGTACTTATTTATATACAAAT [XGTACX_site2099]	9.54
TAATGGTGTTCATGTGGTACACTTTATAAATTGGCA [XGTACX_site729]	9.06
TTGAAAATTCTTAAGGCACACACATATATAATATAT [CACACA_site8088]	9.49
AAACTAACTCTAACATGTACATATATATATATATAT [XGTACX_site6949]	9.17
TTTTGAAGTAATACATGTACTTAAATTACTAAAAAA [XGTACX_site1955]	8.89
ACTTTGCGTTAAAAGAGTACATAATATTTTTTTTTT [XGTACX_site7533]	9.19
ATACTTTATTAATATTGTACAAAATAAGAAAAAAAA [XGTACX_site310]	9.12
CACAACAGGGTTGAGGTGCGTAAAAATAGTAGAATA [GTGCAC_site9523]	9.03
ACATAAAAATTATGCACACTTAATAAAGCGAAATGT [CACACA_site3183]	9.45
TTTTTAATCCTTTGCGCATGTAAAATTATATATTTT [TGCATGCA_site306]	9.24
TATATATATATGTGTACACAAAAAATATTATATTAT [CACACA_site5505]	9.32

Sequence	gcPBM binding intensity (ln)
ATTCTATTTTTAAGTACACACATATATATATATATA [CACACA_site3658]	9.48
ACATAATTATTATGCACACATATTTTTATGTATTTA [CACACA_site698]	9.49
ATTATATATATATTATGTACATATATTGAAGTGGAT [XGTACX_site5916]	9.39
TACGAAATCATATGTACACACACATATATATATATA [CACACA_site5216]	9.69
ACGGATTAAAAAATGTGTACGCACAAAAAAAAAAAT [XGTACX_site8259]	9.43
TGTTCAGTATTGCACACACACAACAAAATAAAAAAA [CACACA_site6314]	9.78
ATATATATATATATATGTACTTAATGTTATTATATA [XGTACX_site4508]	9.07
GAAATGTGATAATATACACACACGCATATATATATA [CACACA_site4332]	9.71
TTTTTAAAAAGTAACACACACTCTTATATATAATGA [CACACA_site3618]	9.53
AAAAAAAACAGACACACACACATAAATATAAATAAA [CACACA_site6214]	9.96
TATACATATATATATATATATAGATATATTCACGTG [XGTACX_negctrl_site265]	9.18
AAAATAATAATAAATGCATGTGTTGTTTACTAAGAA [TGCATGCA_site528]	9.53
TACCTATACAGACACACACACACACGCCCACAAAAA [CACACA_site6375]	10.3
TTTTTATATTTATATAAATAAAAAAATAACAAAATG [XGTACX_negctrl_site231]	9.03
CTCCATATTAGACACACACACAAATGAAAAAAATAT [CACACA_site7420]	9.96
TAAAATTAAACAAAAAAAAAGAAAAAAAAAAAAAAG [CACACA_negctrl_site1098]	9.35
TGAACATACATCAAAAGTACAAACTCGCATGTTATA [XGTACX_site3320]	9.33
CCGCCATTGTACCATCCACACACATATATATATGTA [CACACA_site8866]	9.97
AATATTCTATATGATACATGCATGATGGAATAAAAA [TGCATGCA_site980]	9.08

Sequence	gcPBM binding intensity (ln)
AATGTAGACACATATGTACACACATATATATGTATA [CACACA_site9014]	9.52
TTTTGGTATACGTAATTATATAATATGTTAATCAAT [CACACA_negctrl_site645]	9.14
ATATATTTTTATATAGTGCAAGTAATAAAAAGGAAT	9.5
GGAAAAAAATAAAATAAGTATTTTACATACATATTG [TGCATGCA_negctrl_site10]	9
ATAACATTCAAAAAATGTACAAACATATGAATAAAT [XGTACX_site7013]	9.27
AAAACTTTTTTAACAGAAAAATAGGGATACAATATA [CACACA_negctrl_site1708]	9.35
ATATCATTTTATTTGTGTACTTAAAAAGTTGCAATG [XGTACX_site4099]	9.22
GGAATAACCAGACACACACACACATATAAATATGTA [CACACA_site7632]	10.1
TAAATACAAGAACTGACACACATACATACTACATTT [CACACA_site5561]	9.83
TGAAAATATATAACGCGTACAAAAAGGAAATACAAT [XGTACX_site3534]	9.71
AAATAGTTGTTAAAGGTGCACAATATGGATATAAGA	9.53
TTTTTTTTTTTTTTTGCATGTTGAAAATAAAATTAT [TGCATGCA_site86]	8.64
ATTTATTTTAAATAAGTGCAAAATGGTTATAAATAA	9.06
ATAAATATTTTGTAAGCATGCTTTTAAAAAAAGAAA [TGCATGCA_site572]	8.88
AAAATTTCAATAAATACACACATATAAATATAGATT [CACACA_site6893]	9.5
ATGTACTATAGGCACACACACTCACATATATATATA [CACACA_site5745]	9.83
ATATTGCTTATTTGATGTACGAATACACTAGTATTA [XGTACX_site4536]	9.29
ATACTAAATGAACACACACACATATAGATTTATAAC [CACACA_site6200]	10.2
TATCTGTATATGTGTACACATATTCTTAACTCACGC [CACACA_site4255]	9.35
